{"source": "paper PMC10928841", "about": "“Ames test study designs for nitrosamine mutagenicity testing: qualitative and quantitative analysis of key assay parameters” (Mutagenesis, 2023)", "key": {"[1]": {"test_system": "S. typhimurium TA98, TA100, TA1535, TA1537 and E. coli WP2uvrA pKM101", "assay": "Ames test, pre-incubation method, overall result of five strains", "details": "pre-incubation, up to 5000 µg/plate"}, "[2]": {"test_system": "S. typhimurium TA98, TA100, TA1535, TA1537 and E. coli WP2uvrA pKM101", "assay": "Ames test, plate incorporation method, overall result of five strains", "details": "up to 5000 µg/plate"}, "S. typhimurium TA1535 [3]": {"test_system": "S. typhimurium TA1535", "assay": "Ames test, pre-incubation method, TA1535", "details": "up to 5000 µg/plate"}, "S. typhimurium TA1535 [4]": {"test_system": "S. typhimurium TA1535", "assay": "Ames test, plate incorporation method, TA1535", "details": "S9 hamster, up to 5000 µg/plate"}, "S. typhimurium TA100 [5]": {"test_system": "S. typhimurium TA100", "assay": "Ames test, plate incorporation method, TA100", "details": "S9 hamster, up to 5000 µg/plate"}, "S. typhimurium TA100 [6]": {"test_system": "S. typhimurium TA100", "assay": "Ames test, pre-incubation method, TA100", "details": "up to 5000 µg/plate"}, "S. typhimurium TA98 [7]": {"test_system": "S. typhimurium TA98", "assay": "Ames test, plate incorporation method, TA98", "details": "S9 hamster, up to 5000 µg/plate"}, "S. typhimurium TA98 [8]": {"test_system": "S. typhimurium TA98", "assay": "Ames test, pre-incubation method, TA98", "details": "S9 hamster, up to 5000 µg/plate"}}, "data": [{"smiles": "CCN(CC)N=O", "note": "[NDEA, N-nitrosodiethylamine]", "values": [{"measurement": "Ames test Result", "setting": "[1]; S9 hamster, vehicle DHF", "result": "Positive"}, {"measurement": "Ames test Result", "setting": "[1]; S9 hamster, vehicle DMF", "result": "Positive"}, {"measurement": "Ames test Result", "setting": "[1]; S9 hamster, vehicle DMSO", "result": "Positive"}, {"measurement": "Ames test Result", "setting": "[1]; S9 hamster, vehicle NMP", "result": "Positive"}, {"measurement": "Ames test Result", "setting": "[1]; S9 hamster, vehicle acetone", "result": "Positive"}, {"measurement": "Ames test Result", "setting": "[1]; S9 hamster, vehicle acetonitrile", "result": "Positive"}, {"measurement": "Ames test Result", "setting": "[1]; S9 hamster, vehicle methanol", "result": "Positive"}, {"measurement": "Ames test Result", "setting": "[1]; S9 hamster, vehicle water", "result": "Positive"}, {"measurement": "Ames test Result", "setting": "[1]; S9 rat, vehicle DHF", "result": "Positive"}, {"measurement": "Ames test Result", "setting": "[1]; S9 rat, vehicle DMF", "result": "Negative"}, {"measurement": "Ames test Result", "setting": "[1]; S9 rat, vehicle DMSO", "result": "Positive"}, {"measurement": "Ames test Result", "setting": "[1]; S9 rat, vehicle NMP", "result": "Negative"}, {"measurement": "Ames test Result", "setting": "[1]; S9 rat, vehicle acetone", "result": "Positive"}, {"measurement": "Ames test Result", "setting": "[1]; S9 rat, vehicle acetonitrile", "result": "Positive"}, {"measurement": "Ames test Result", "setting": "[1]; S9 rat, vehicle methanol", "result": "Positive"}, {"measurement": "Ames test Result", "setting": "[1]; S9 rat, vehicle water", "result": "Positive"}, {"measurement": "Ames test Result", "setting": "[2]; S9 hamster, vehicle DMSO", "result": "Positive"}, {"measurement": "Ames test Result", "setting": "[2]; S9 hamster, vehicle methanol", "result": "Positive"}, {"measurement": "Ames test Result", "setting": "[2]; S9 hamster, vehicle water", "result": "Positive"}, {"measurement": "Ames test Result", "setting": "[2]; S9 rat, vehicle DMSO", "result": "Positive"}, {"measurement": "Ames test Result", "setting": "[2]; S9 rat, vehicle methanol", "result": "Positive"}, {"measurement": "Ames test Result", "setting": "[2]; S9 rat, vehicle water", "result": "Positive"}, {"measurement": "Ames test strain TA1535", "setting": "S. typhimurium TA1535 [3]; S9 hamster, vehicle DMF", "result": "+ (positive for mutagenicity, if a biologically relevant increase in the mean number of revertant colonies above a threshold of 2-fold (TA98, TA100, WP2 uvrA) or 3-fold (TA1535, TA1537))"}, {"measurement": "Ames test strain TA1535", "setting": "S. typhimurium TA1535 [3]; S9 hamster, vehicle DMSO", "result": "+ (positive for mutagenicity, if a biologically relevant increase in the mean number of revertant colonies above a threshold of 2-fold (TA98, TA100, WP2 uvrA) or 3-fold (TA1535, TA1537))"}, {"measurement": "Ames test strain TA1535", "setting": "S. typhimurium TA1535 [3]; S9 hamster, vehicle acetone", "result": "+ (positive for mutagenicity, if a biologically relevant increase in the mean number of revertant colonies above a threshold of 2-fold (TA98, TA100, WP2 uvrA) or 3-fold (TA1535, TA1537))"}, {"measurement": "Ames test strain TA1535", "setting": "S. typhimurium TA1535 [3]; S9 hamster, vehicle methanol", "result": "+ (positive for mutagenicity, if a biologically relevant increase in the mean number of revertant colonies above a threshold of 2-fold (TA98, TA100, WP2 uvrA) or 3-fold (TA1535, TA1537))"}, {"measurement": "Ames test strain TA1535", "setting": "S. typhimurium TA1535 [3]; S9 hamster, vehicle water", "result": "+ (positive for mutagenicity, if a biologically relevant increase in the mean number of revertant colonies above a threshold of 2-fold (TA98, TA100, WP2 uvrA) or 3-fold (TA1535, TA1537))"}, {"measurement": "Ames test strain TA1535", "setting": "S. typhimurium TA1535 [3]; S9 rat, vehicle acetone", "result": "+ (positive for mutagenicity, if a biologically relevant increase in the mean number of revertant colonies above a threshold of 2-fold (TA98, TA100, WP2 uvrA) or 3-fold (TA1535, TA1537))"}, {"measurement": "Ames test strain TA1535", "setting": "S. typhimurium TA1535 [4]; vehicle DMSO", "result": "+ (positive for mutagenicity, if a biologically relevant increase in the mean number of revertant colonies above a threshold of 2-fold (TA98, TA100, WP2 uvrA) or 3-fold (TA1535, TA1537))"}, {"measurement": "Ames test strain TA1535", "setting": "S. typhimurium TA1535 [4]; vehicle methanol", "result": "+ (positive for mutagenicity, if a biologically relevant increase in the mean number of revertant colonies above a threshold of 2-fold (TA98, TA100, WP2 uvrA) or 3-fold (TA1535, TA1537))"}, {"measurement": "Ames test strain TA1535", "setting": "S. typhimurium TA1535 [4]; vehicle water", "result": "+ (positive for mutagenicity, if a biologically relevant increase in the mean number of revertant colonies above a threshold of 2-fold (TA98, TA100, WP2 uvrA) or 3-fold (TA1535, TA1537))"}, {"measurement": "Ames test strain TA100", "setting": "S. typhimurium TA100 [5]; vehicle DMSO", "result": "+ (positive for mutagenicity, if a biologically relevant increase in the mean number of revertant colonies above a threshold of 2-fold (TA98, TA100, WP2 uvrA))"}, {"measurement": "Ames test strain TA100", "setting": "S. typhimurium TA100 [5]; vehicle methanol", "result": "+ (positive for mutagenicity, if a biologically relevant increase in the mean number of revertant colonies above a threshold of 2-fold (TA98, TA100, WP2 uvrA))"}, {"measurement": "Ames test strain TA100", "setting": "S. typhimurium TA100 [5]; vehicle water", "result": "+ (positive for mutagenicity, if a biologically relevant increase in the mean number of revertant colonies above a threshold of 2-fold (TA98, TA100, WP2 uvrA))"}, {"measurement": "Ames test strain TA100", "setting": "S. typhimurium TA100 [6]; S9 hamster, vehicle DHF", "result": "+ (positive for mutagenicity, if a biologically relevant increase in the mean number of revertant colonies above a threshold of 2-fold (TA98, TA100, WP2 uvrA))"}, {"measurement": "Ames test strain TA100", "setting": "S. typhimurium TA100 [6]; S9 hamster, vehicle DMF", "result": "+ (positive for mutagenicity, if a biologically relevant increase in the mean number of revertant colonies above a threshold of 2-fold (TA98, TA100, WP2 uvrA))"}, {"measurement": "Ames test strain TA100", "setting": "S. typhimurium TA100 [6]; S9 hamster, vehicle DMSO", "result": "+ (positive for mutagenicity, if a biologically relevant increase in the mean number of revertant colonies above a threshold of 2-fold (TA98, TA100, WP2 uvrA))"}, {"measurement": "Ames test strain TA100", "setting": "S. typhimurium TA100 [6]; S9 hamster, vehicle acetone", "result": "+ (positive for mutagenicity, if a biologically relevant increase in the mean number of revertant colonies above a threshold of 2-fold (TA98, TA100, WP2 uvrA))"}, {"measurement": "Ames test strain TA100", "setting": "S. typhimurium TA100 [6]; S9 hamster, vehicle methanol", "result": "+ (positive for mutagenicity, if a biologically relevant increase in the mean number of revertant colonies above a threshold of 2-fold (TA98, TA100, WP2 uvrA))"}, {"measurement": "Ames test strain TA100", "setting": "S. typhimurium TA100 [6]; S9 hamster, vehicle water", "result": "+ (positive for mutagenicity, if a biologically relevant increase in the mean number of revertant colonies above a threshold of 2-fold (TA98, TA100, WP2 uvrA))"}, {"measurement": "Ames test strain TA100", "setting": "S. typhimurium TA100 [6]; S9 rat, vehicle DHF", "result": "+ (positive for mutagenicity, if a biologically relevant increase in the mean number of revertant colonies above a threshold of 2-fold (TA98, TA100, WP2 uvrA))"}, {"measurement": "Ames test strain TA98", "setting": "S. typhimurium TA98 [7]; vehicle DMSO", "result": "+ (positive for mutagenicity, if a biologically relevant increase in the mean number of revertant colonies above a threshold of 2-fold (TA98, TA100, WP2 uvrA))"}, {"measurement": "Ames test strain TA98", "setting": "S. typhimurium TA98 [7]; vehicle methanol", "result": "+ (positive for mutagenicity, if a biologically relevant increase in the mean number of revertant colonies above a threshold of 2-fold (TA98, TA100, WP2 uvrA))"}, {"measurement": "Ames test strain TA98", "setting": "S. typhimurium TA98 [7]; vehicle water", "result": "+ (positive for mutagenicity, if a biologically relevant increase in the mean number of revertant colonies above a threshold of 2-fold (TA98, TA100, WP2 uvrA))"}, {"measurement": "Ames test strain TA98", "setting": "S. typhimurium TA98 [8]; vehicle DMSO", "result": "+ (positive for mutagenicity, if a biologically relevant increase in the mean number of revertant colonies above a threshold of 2-fold (TA98, TA100, WP2 uvrA))"}, {"measurement": "Ames test strain TA98", "setting": "S. typhimurium TA98 [8]; vehicle methanol", "result": "+ (positive for mutagenicity, if a biologically relevant increase in the mean number of revertant colonies above a threshold of 2-fold (TA98, TA100, WP2 uvrA))"}, {"measurement": "Ames test strain TA98", "setting": "S. typhimurium TA98 [8]; vehicle water", "result": "+ (positive for mutagenicity, if a biologically relevant increase in the mean number of revertant colonies above a threshold of 2-fold (TA98, TA100, WP2 uvrA))"}]}]}
